Data on 68 molecules can be found in PubChem BioAssay AID1625 (Sanford-Burnham Center for Chemical Genomics, 2009).

Some of the results follow. The main result of the screen is listed elsewhere. These columns were measured beside it and carry no call. Most of these compounds were active or inconclusive in the main read-out, so they are no random draw.

The assay is described as follows: up-regulation of insulin promoter-GFP reporter – imaging, high-content screening, mouse beta cells (AID 1625).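 Further: total cells summed across four imaged fields per well.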 The settings on record: MIN6 insulin promoter-GFP reporter, measured here: cytotoxicity, nuclei count, at 5 µM.
The molecule `CCn1cc([N+](=O)[O-])c(C(=O)Nc2ccn(Cc3ccccc3)n2)n1` showed a cell count of 401 cells. Consider `Cc1ccc(NC(=O)/C=C/c2ccc([N+](=O)[O-])s2)cc1`, for which the cell count came out at 654 cells. Then `CC(C)(C)C(=O)/C=c1\s/c(=C\c2ccc(-c3ccc([N+](=O)[O-])cc3)o2)c(=O)n1CC(=O)NC(N)=O`, with 1350 cells; and `CCOc1ccc(NC2=NCC(=O)N2Cc2cccs2)cc1`, with 1320 cells. Then `CCOc1cc(CNCc2ccncc2)cc(Br)c1OCc1ccccc1F`, with 244 cells; and `CCn1c2ccccc2c2cc(NC(=O)c3cc(OC)c(OC)c(OC)c3)ccc21`, with 376 cells; and `COc1ccc(C(=O)/C=C/c2ccc(N(C)C)cc2)c(OC)c1`, with 1030 cells. To `Cc1ccccc1N1CCN(c2ncnc3scc(-c4cccs4)c23)CC1` belongs 451 cells; to `OCCNc1nc(Nc2ccccc2)nc2ccccc12`, 449 cells. `COc1ccc2c(n1)Sc1nc3ccccc3nc1N2` showed a cell count of 1460 cells. Take `COc1cc(CN2CCc3ccccc3C2)ccc1O`: the cell count turned out to be 409 cells. To `CC1CCN(C(=O)CNS(=O)(=O)c2ccc(Br)s2)CC1` belongs 864 cells.

Molecule `COc1ccc2[nH]cc(CCN=C3SCC(=O)N3C)c2c1` displayed a cell count of 435 cells.

`COc1cc(C(=O)N2CCN(c3ncnc4sc(C)c(C)c34)CC2)cc(OC)c1OC` showed a cell count of 215 cells. `CCOC(=O)CC1C(=O)NCCN1c1nc2ccc(C)cn2c(=O)c1/C=C1\SC(=S)N(C(C)CC)C1=O` (stereo not drawn) displayed a cell count of 1280 cells.

Molecule `Cc1ccc(Nc2nc(Cl)c(C=O)s2)cc1Cl` displayed a cell count of 1510 cells. On to `O=C(c1ccccc1)c1c2c(cc3sc4ccccc4[n+]13)-c1cccc3cccc-2c13`, for which the cell count was determined as 180 cells. Molecule `CCOC(=O)c1c(NC(=O)C2COc3ccccc3O2)sc(C(C)=O)c1C` (stereo not drawn) came in with a cell count of 494 cells.

As for `COc1ccc(-n2nnnc2SCC#CCO)cc1`, the cell count was 444 cells. Take `C=CCN(CC=C)CCOc1ccccc1`: the cell count came out at 363 cells. Turning to `CCn1c(CNC(=O)COc2ccc(C(C)C)cc2)nnc1SCC(=O)Nc1ccccc1C(C)C`, the cell count worked out at 499 cells. To `CCOc1ccc(NC(=O)C2=C(C)C(=O)OC23CCC(C)CC3)cc1` (stereo not drawn) belongs 315 cells; to `CN1CCN(Cc2nc(N)nc(Nc3ccc4c(c3)OCCO4)n2)CC1`, 1100 cells.

The molecule `COc1ccc(N=C2NC(=O)S/C2=C\c2ccc(N(C)C)cc2)cc1` came in with a cell count of 1330 cells.

`Cc1ccc(C2(C(F)(F)F)N=C3Sc4cc(C)ccc4N3C(=O)N2)cc1` (stereo not drawn) displayed a cell count of 1040 cells. To `COCCNS(=O)(=O)c1ccc(SC)cc1` belongs 470 cells; to `Cc1cc(N2CCN(C/C=C/c3ccccc3)CC2)n2ncnc2n1`, 190 cells. To `O=C(C1=C(c2ccccc2)C(=O)c2ccccc2C1=O)c1ccccc1` belongs 253 cells. To `CC1CC(C)(C)Nc2ccc(N=O)cc21` (stereo not drawn) belongs 742 cells; to `Cc1cc(C(=O)CSc2nc3ccccc3c(=O)n2C)c(C)n1Cc1ccc2c(c1)OCO2`, 185 cells; to `COc1ccc(/C=C/C(=O)c2ccc[nH]2)cc1OC`, 371 cells. `O=c1c(Cl)c2oc3ccccc3nc-2c2ccccc12` came in with a cell count of 1300 cells.

In turn, `Cn1nc(-c2ccc(Cl)cc2)c2cc(C(=O)N3CCN(C(=O)c4ccco4)CC3)sc21` gave a cell count of 300 cells. Then `CN(C)CCCN1C(=O)c2cccc3c([N+](=O)[O-])ccc(c23)C1=O`, with 224 cells; and `Cc1cc(C)nc(SCSc2nc(C)cc(C)n2)n1`, with 861 cells; and `CCN(CC)CCCNC1=C(Cl)C(=O)c2ccccc2C1=O`, with 320 cells. For the molecule `NC[C@@H]1O[C@H](C23CC4CC(CC(C4)C2)C3)Cc2c1ccc(O)c2O`, the cell count amounted to 363 cells. Consider `CCN(CC)c1ccc(-c2nn3c(-c4ccccc4OC)nnc3s2)cc1`, for which the cell count was determined as 421 cells. Then `Cc1cc(C)cc(NC(=O)/C=C/c2ccc([N+](=O)[O-])s2)c1`, with 1090 cells; and `S=c1nc(-c2ccco2)[nH][nH]1`, with 243 cells. `Clc1ccc2oc(-c3ccccn3)nc2c1` had a cell count of 1080 cells. In the case of `Cc1ccc(-c2nn(-c3ccccc3)cc2/C=N/NC(=O)c2ccc(Br)o2)cc1`, the cell count came to 206 cells. To `Nc1ccc2c(c1)C(=O)C(=O)c1ccccc1-2` belongs 216 cells; to `C=CCn1c(=NC(=O)c2cc(-c3cccs3)nc3ccccc23)sc2cc(S(N)(=O)=O)ccc21`, 1150 cells. Then `Cc1ccc(C(=O)COC(=O)C2C3C=CC(C3)C2C(=O)OCC(=O)c2ccc(C)c(C)c2)cc1C` (stereo not drawn), with 413 cells; and `NC1=NC[C@H](c2ccccc2)N1CCCCC1CCCCC1`, with 351 cells; and `COc1ccc(CNC(=O)c2cc3c(C)nc4ccccc4c3o2)c(OC)c1`, with 491 cells. `O=C1C(Cl)=C(N2CCOCC2)C(=O)N1CCc1ccccc1` had a cell count of 411 cells. In turn, `O=S(=O)(Nc1cc(Sc2cccc3cccnc23)c(O)c2ccccc12)c1ccc(F)cc1` showed a cell count of 142 cells. Consider `CCOC(=O)c1c(NC(=O)C2c3ccccc3Oc3ccccc32)sc(C(=O)N(CC)CC)c1C`, for which the cell count came to 483 cells.

As to `COc1ccc(C(=O)/C=C/C(=O)N(CC(=O)NC2CCCCC2)Cc2ccc(F)cc2)c(O)c1`, the cell count amounted to 442 cells. Then `COC(=O)C1=NN[C@H](C(=O)OC(C)(C)C)[C@H]1c1ccccc1`, with 490 cells.

Take `Fc1ccc(C2CC(c3ccco3)=NN2c2ccccc2)cc1` (stereo not drawn): the cell count was determined as 1260 cells. Then `Cc1ccc(CN=Cc2[nH]c3ccc(Br)c(Cl)c3c2O)cc1`, with 786 cells. To `CCOc1ccc(S(=O)(=O)Nc2cccc(N(C)S(C)(=O)=O)c2)cc1` belongs 464 cells; to `CN(C(=O)COc1ccccc1C(=O)NCCOc1ccccc1)c1ccccc1`, 397 cells; to `O=S(=O)(NCc1ccncc1)c1ccc(S(=O)(=O)NCC2CCCO2)cc1` (stereo not drawn), 287 cells.

Take `CN(NS(=O)(=O)c1ccc(Cl)cc1)c1ncc(C(F)(F)F)cc1Cl`: the cell count turned out to be 370 cells. To `CN1/C(=C\C(=S)NC(=O)c2ccccc2Cl)C(C)(C)c2ccccc21` belongs 361 cells; to `CCN1/C(=C/c2ccc3cc(C)ccc3[n+]2CC)Sc2cc(C)ccc21`, 248 cells.

Regarding `COc1ccc(C(=O)c2c(C)oc3ccc(O)c(CN4CCOCC4)c23)cc1`, the cell count came to 447 cells. Consider `CC(=O)c1cccc(NS(=O)(=O)c2ccc(N/C=C/C(=O)c3ccc(F)cc3)cc2)c1`, for which the cell count came to 499 cells. Then `CC1(C)Cc2c(c(-c3ccccc3)[nH]c(=O)c2C#N)CO1`, with 1360 cells; and `Oc1c(CN2CCN(c3ccccc3)CC2)cc(Br)c2cccnc12`, with 350 cells. In the case of `CCCn1c(NC(=O)c2ccc(Cl)c(S(=O)(=O)N3CCCC3)c2)nc2ccccc21`, the cell count was found to be 396 cells. To `O=C(Cn1ncc(Cl)c(Cl)c1=O)NCC1CCCCC1` belongs 269 cells; to `CN(CC(=O)NCCc1ccccc1)S(=O)(=O)c1cccc2nsnc12`, 492 cells. `COc1ccc(-c2nn(-c3ccccc3)cc2/C=N/NC(=O)c2ccc(Br)o2)cc1`: the cell count was 232 cells.
